Results from PubChem BioAssay AID1347073 (National Center for Advancing Translational Sciences (NCATS), 2019).
Out of some 45,000 compounds screened, about 200 (0.44%) were called active. Inconclusive results (about 7%) are left out. The call rests on the fitted dose curve; in most records, active means well fitted activation curve with a large enough effect; inconclusive means small, poorly fitted or top-dose-only effect; inactive means no such curve, though single readings can be large or run the other way. This is one part of the list.

experiment: qHTS of TDP-43 Inhibitors: NCGC Sytravon Library Screen; details: yeast TDP-43 toxicity rescue, BacTiter-Glo growth, 24 h; series mostly up to 46.1 µM; growth rescue (activation): at the top concentration; further: 0% is about no effect; nearly all actives have a fitted effect of over 55% in size
In short: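 TDP-43-expressing yeast, pregrown in raffinose, seeded at OD600 0.02 in galactose medium with compound for 24 hr at 30 deg C. Growth read by BacTiter-Glo luminescence, so rescue of toxicity appears as activation.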

SMILES	growth rescue (activation)
CCN1CC(=O)Nc2cc(S(=O)(=O)N3CCOCC3)ccc21	inactive: -7.07%
O=C(NNC(=S)NC1CCCCC1)c1ccccc1Cl	inactive: 18.3%
O=C(CCNC(=O)c1ccco1)Nc1ccc(OC(F)(F)F)cc1	inactive: 11.1%
Cc1cc(NC(=O)c2ccco2)c(=O)n(Cc2cccc(C(F)(F)F)c2)c1	inactive: 4.02%
CCOC(=O)NNC(=O)C12CC3CC(CC(C3)C1)C2	inactive: 0.0433%
Fc1cccc(Nc2c3c(nc4ccccc24)CCC3)c1	inactive: 6.4%
CN(C)CCNC(=O)COc1ccc(C23CC4CC(CC(C4)C2)C3)cc1	inactive: 24.8%
O=C(COc1ccccc1-c1ccccc1)NCCN1C(=O)S/C(=C\c2cccnc2)C1=O	inactive: -15.1%
CC(=O)c1ccc(OC(=O)c2nc(-c3ccccc3)oc2C)cc1	inactive: 8.74%
CCCC(=O)NC(c1ccc(OC)c(OC)c1)c1cc(Cl)c2cccnc2c1O (stereo not drawn)	inactive: 4.27%
NNC(=O)CCn1c2ccccc2c2ccccc21	inactive: 7.33%
Cc1sc2nc(CSc3ccccc3)nc(N3CCC(C(N)=O)CC3)c2c1C	inactive: 11.9%
COc1ccc(C(CC(=O)O)NS(=O)(=O)c2ccc3c(c2)NC(=O)CO3)cc1 (stereo not drawn)	inactive: 5.59%
Cc1ccc(N(C(=O)CNC(=O)c2ccco2)C(C(=O)NC2CCCCC2)c2cccnc2)cc1F (stereo not drawn)	inactive: 5%
CC(=O)c1ccccc1N(C(=O)c1ccco1)C(C(=O)NC1CCCC1)c1ccc(C)cc1 (stereo not drawn)	inactive: 6.4%
COc1cc(/C(C)=N/Nc2ccc(C(=O)O)cc2)cc(OC)c1OC	inactive: 29.4%
CN(C)C(CNC(=O)C1CCN(S(=O)(=O)c2ccc(Cl)cc2)CC1)c1ccccc1 (stereo not drawn)	inactive: 5.16%
CC(OC(=O)CCc1nc2ccccc2c(=O)[nH]1)C(=O)NC1CCCC1 (stereo not drawn)	inactive: 1.86%
N/C(=N/O)c1cccn1Cc1ccccc1[N+](=O)[O-]	inactive: 4.53%
COc1ccc(NC(=S)NCc2cccnc2)cc1	inactive: -9.23%
O=C(NCCN1CCOCC1)C1CC(=O)N(c2ccc(Cl)cc2)C1 (stereo not drawn)	inactive: 2.02%
CCCN1C(=O)c2cc(C(=O)Nc3ccc(OC)cc3OC)ccc2C1Nc1ccc(OC)cc1OC (stereo not drawn)	inactive: 9.2%
O=C(N/N=C/c1ccc(O)c2ccccc12)c1cccnc1	inactive: 2.15%
CCc1cc(C(=O)N2CCN(c3ncc(C(F)(F)F)cc3Cl)CC2)sc1C	inactive: 18.9%
Cc1ccc2c(c1)c(C1=NC(=S)NC1=O)c(O)n2C	inactive: 0.0829%
COc1ccc(N=C2SC(CC(=O)Nc3ccccc3F)C(=O)N2Cc2ccco2)cc1 (stereo not drawn)	inactive: -2.34%
Cc1sc2c(c1C)c(=O)n(-c1ccc(F)cc1)c(=O)n2CC(=O)NCc1ccco1	inactive: 16.4%

SMILES	growth rescue (activation)
COc1ccc(N(C)S(=O)(=O)c2ccc(Cl)c(C(=O)NCCc3ccc(Cl)cc3)c2)cc1	inactive: -11%
CN(C)S(=O)(=O)c1cccc(C(=O)NCCOC(=O)c2cc(F)c(F)cc2Cl)c1	inactive: 6.31%
O=C(N/N=C/c1cc(Cl)ccc1O)c1ccc(Br)cc1	inactive: -26.2%
Cc1oc2c(O)c(O)ccc2c(=O)c1-c1ccc(Cl)cc1	inactive: 2.79%
O=C(c1ccccc1)c1c[nH]c(C(=O)NNc2cccc(Cl)n2)c1	inactive: -2.05%
CCOc1cc(NC(=S)NCCCN2CCOCC2)c(OCC)cc1NC(=O)c1ccccc1	inactive: 6.38%
COc1ccc2c3c([nH]c2c1)C1(NCC3)C(=O)Nc2ccccc21 (stereo not drawn)	inactive: 6.34%
Cc1ccc(NC(=O)c2ccc(OC(=O)COc3ccc(Cl)cc3C)cc2)cc1	inactive: 7.56%
Cc1nn(-c2ccccc2)c(C)c1C(=O)OC(C)C(=O)NC1CCCCC1 (stereo not drawn)	inactive: 17.5%
CC(=O)c1ccccc1NC(=O)c1ccc(OCc2c(C)noc2C)cc1	inactive: -19.9%
CN(c1cccc(NC(=O)CN(c2ccc(Cl)c(Cl)c2)S(=O)(=O)c2ccccc2)c1)S(C)(=O)=O	inactive: -6.72%
O=C(Nc1ccc(Br)cc1)c1cc(-c2ccncc2)nc2ccccc12	inactive: 25.6%
COc1ccc2c(c1)C=C(CN1CCN(C(C)C)C(CCO)C1)CO2 (stereo not drawn)	inactive: 4.3%
Nc1c(C(=O)N2CCCC2)sc2nc(-c3ccccc3)ccc12	inactive: 14.3%
COc1cc(/C=N/NC(=O)c2ccc([N+](=O)[O-])cc2Cl)cc(Br)c1O	inactive: 16.9%
Cc1cc(Cl)c2oc(C(=O)NCCC3CCCCO3)c(C)c2c1 (stereo not drawn)	inactive: 21%
CS(=O)(=O)c1ccc2nc(NC(=O)c3ccc(=O)[nH]c3)sc2c1	inactive: -4.43%
CC1CCCCC1NC(=O)COC(=O)c1c2c(nc3ccccc13)/C(=C\c1ccco1)CC2 (stereo not drawn)	inactive: 3.48%
Cc1cc(CNC(=O)C2CCC(=O)N(Cc3ccccc3F)C2)on1 (stereo not drawn)	inactive: -16.6%
CC(C)(C)CN1CCNC(=O)C1CC(=O)NCCN1CCCc2ccccc21 (stereo not drawn)	inactive: 5.13%
Cc1cccn2c(=O)c3cc(C(=O)NC4CCCC4)c(=N)n(CCc4ccccc4)c3nc12	inactive: -2.42%
CCn1c(SCC(=O)N/N=C/C=C\c2ccco2)nc2ccccc21	inactive: -3.78%
CN(C)c1nc(N(C)C)n(C(=O)c2ccc(F)cc2)n1	inactive: 9.88%
CC1CC1C(=O)Nc1nc2ccc(S(C)(=O)=O)cc2s1 (stereo not drawn)	inactive: 5.7%
Cc1cccn2c(=O)c3cc(C(=O)NCc4ccco4)c(=N)n(CCc4ccccc4)c3nc12	inactive: 7.8%
O=C(c1ccccc1)c1cccn1CC(=O)N1CCCCCC1	inactive: 16.2%
